# Measurements taken from patent US20060018921A1, “Histone deacetylase inhibitors and cognitive applications” (priority 2004, published 2006).
# Entries after “also recorded” stand apart in the source; their conditions may differ. Starred links: 1 amine or outer side, 2 acyl side, 3 side chain; linkers in the order of their positions; H or OH if unused. Positions of bridges follow the written chain, without caps; N, C: chain ends. Non-standard residues stand in square brackets, D forms with d. Residues, ends and D or L forms follow the SMILES beside them. Chains are numbered I, II in the order given. Actinocin(9to1) = Cc1c2oc3c(C)ccc(C(=O)[*:1])c3nc-2c(C(=O)[*:2])c(N)c1=O; NMeV = CN[C@H](C(=O)O)C(C)C; Sar = CNCC(=O)O
# System: Schaffer-collateral synapses in area CA1 of the hippocampus
# Test: Slice electrophysiology, induction of LTP
# Details: for LTP after 2 h (late phase) with transcription inhibitor alone / LTP up to 2 h after induction (early-phase) with transcription inhibitor alone: DRB 60 μM or actinomycin D 25 μM from 20 min prior to induction and for 3 h afterward; for enhancement of LTP normally seen with TSA, in the presence of transcription inhibitor: DRB 60 μM or actinomycin D 25 μM with TSA 1.65 μM; for LTP induced by 2, 100 Hz tetani: sodium butyrate 300 μM for 40 min beginning 20 min before LTP induction, vs ACSF
Structure (SMILES),LTP after 2 h (late phase) with transcription inhibitor alone,LTP up to 2 h after induction (early-phase) with transcription inhibitor alone,LTP after 2 h (late phase) with transcription inhibitor alone (listed as ActD),LTP up to 2 h after induction (early-phase) with transcription inhibitor alone (listed as ActD),"enhancement of LTP normally seen with TSA, in the presence of transcription inhibitor","enhancement of LTP normally seen with TSA, in the presence of transcription inhibitor (listed as ActD)","LTP induced by 2, 100 Hz tetani","LTP induced by 2, 100 Hz tetani (listed as NaB)"
"OC[C@H]1O[C@@H](n2cnc3cc(Cl)c(Cl)cc32)[C@H](O)[C@@H]1O [DRB, 5,6-dichlorobenzimidazole riboside]",decayed to unpotentiated levels by 3 h after induction; also recorded: decays to basal levels of synaptic efficacy 2 h after high-frequency stimulation,–,–,–,–,–,–,–
"Cc1c2oc3c(C)ccc(C(=O)N[C@@H]4C(=O)N[C@H](C(C)C)C(=O)N5CCC[C@H]5C(=O)N(C)CC(=O)N(C)[C@@H](C(C)C)C(=O)O[C@@H]4C)c3nc-2c(C(=O)N[C@@H]2C(=O)N[C@H](C(C)C)C(=O)N3CCC[C@H]3C(=O)N(C)CC(=O)N(C)[C@@H](C(C)C)C(=O)O[C@@H]2C)c(N)c1=O [actinomycin D, Actinomycin D] (I: T[dV]P[Sar][NMeV] / II: T[dV]P[Sar][NMeV]; ester I:1-I:C, II:1-II:C; linker I:N-II:N via Actinocin(9to1))",decays to basal levels of synaptic efficacy 2 h after high-frequency stimulation,normal early-phase LTP,decayed to basal levels after 2 h,normal,completely inhibits the enhancement of LTP normally seen with TSA,blocked the effect of TSA on LTP at all times,–,–
CCCC(=O)[O-].[Na+] [sodium butyrate],–,–,–,–,–,–,significantly enhanced,enhanced induction of LTP
